# Measured values published in patent EP0413839A1, “GHRH analogs” (The Administrators of The Tulane Educational Fund, priority 1989, dated 1991).
# Not every detail of the peptide structures is certain; ends, links or a residue may be inferred. Residues, ends and D or L forms follow the SMILES beside them.
# Tests used:
# [1] = test system: superfused rat pituitary cell system; experiment: GH releasing activity in vitro, superfused rat pituitary cell system, GH by RIA; type: cell-based; conditions: GH release; peptide administered 3 min at two concentrations (nM) given per peptide; assumed 4-point assay
# [2] = percent of the potency of hGRF; cited from earlier work
# [3] = test system: GH release in the rat; experiment: In vivo GH release in anesthetized rats after subcutaneous injection, plasma GH by RIA; conditions: SC; for GH released (ng/ml)*: Mean ± SEM; for Potency: relative to hGHRH(1-29)NH₂(=1), 4-point assay from Table 4
# [4] = test system: GH release in the rat; experiment: In vivo GH release in anesthetized rats after intravenous injection, plasma GH by RIA; conditions: relative to hGHRH (1-29)NH₂ (=1), i.v., 4-point assay from Table 2
smiles,measurement,setting,value
"CCCC[C@H](NC(=O)[C@@H](NC(=O)[C@H](CC(=O)O)NC(=O)[C@H](CCC(N)=O)NC(=O)[C@@H](CC(C)C)NC(=O)[C@H](CC(C)C)NC(=O)[C@H](CCCCN)NC(=O)[C@H](CCCNC(=N)N)NC(=O)[C@H](C)NC(=O)[C@H](CO)NC(=O)[C@H](CC(C)C)NC(=O)[C@H](CCC(N)=O)NC(=O)[C@H](C)NC(=O)[C@H](CC(C)C)NC(=O)[C@@H](NC(=O)[C@@H](CCCCN)NC(=O)[C@H](CCCNC(=N)N)NC(=O)[C@H](Cc1ccc(O)cc1)NC(=O)[C@H](CO)NC(=O)[C@H](CC(N)=O)NC(=O)[C@@H](NC(=O)[C@H](Cc1ccccc1)NC(=O)[C@@H](NC(=O)[C@H](C)NC(=O)[C@H](CC(=O)O)NC(=O)[C@H](C)NC(=O)CCc1ccc(O)cc1)[C@@H](C)CC)[C@@H](C)O)C(C)C)[C@@H](C)CC)C(=O)N[C@@H](CO)C(=O)NCCCCNC(=N)N [Example XIV, 3-(4-hydroxyphenyl)propionyl-Ala₂-Asp₃-Ala₄-Ile₅-Phe₆-Thr₇-Asn₈-Ser₉-Tyr₁₀-Arg₁₁-D-Lys₁₂-Val₁₃-Leu₁₄-Ala₁₅-Gln₁₆-Leu₁₇-Ser₁₀-Ala₁₉-Arg₂₀-Lys₂₁-Leu₂₂-D-Leu₂₃-Gln₂₄-Asp₂₅-Ile₂₆-Nle₇-Ser₂₈-NH-(CH₂)₄-NH-C-(NH)₂=NH] (HELM PEPTIDE1{[O=C(CCc1ccc(O)cc1)[*:2]].A.D.A.I.F.T.N.S.Y.R.[dK].V.L.A.Q.L.S.A.R.K.L.[dL].Q.D.I.[Nle].S.[N=C(N)NCCCCN[*:1]]}$$$$V2.0)",Potentency relative to hGHRH (1-29)NH₂ (=1)*,[1],34.8
"CC[C@H](C)[C@H](NC(=O)[C@H](C)NC(=O)[C@H](CC(=O)O)NC(=O)[C@H](C)NC(=O)[C@@H](N)Cc1ccc(O)cc1)C(=O)N[C@@H](Cc1ccccc1)C(=O)N[C@H](C(=O)N[C@@H](CC(N)=O)C(=O)N[C@@H](CO)C(=O)N[C@@H](Cc1ccc(O)cc1)C(=O)N[C@@H](CCCNC(=N)N)C(=O)N[C@@H](CCCCN)C(=O)N[C@H](C(=O)N[C@@H](CC(C)C)C(=O)NCC(=O)N[C@@H](CCC(N)=O)C(=O)N[C@@H](CC(C)C)C(=O)N[C@@H](CO)C(=O)N[C@@H](C)C(=O)N[C@@H](CCCNC(=N)N)C(=O)N[C@@H](CCCCN)C(=O)N[C@@H](CC(C)C)C(=O)N[C@@H](CC(C)C)C(=O)N[C@@H](CCC(N)=O)C(=O)N[C@@H](CC(=O)O)C(=O)N[C@H](C(=O)N[C@@H](CCSC)C(=O)N[C@@H](CO)C(=O)N[C@@H](CCCNC(=N)N)C(N)=O)[C@@H](C)CC)C(C)C)[C@@H](C)O [hGHRH(1-29)NH₂, reference compound]",potency of hGRF,[2],at least 50%
same,GH released (ng/ml)*,"[3]; dose 100 ug/kg, 0 min. (pretreated level)",71 ± 5.1 ng/mL
same,GH released (ng/ml)*,"[3]; dose 100 ug/kg, 15 min.",173 ± 19.8 ng/mL
same,GH released (ng/ml)*,"[3]; dose 100 ug/kg, 30 min.",184 ± 29.2 ng/mL
same,GH released (ng/ml)*,"[3]; dose 100 ug/kg, 60 min.",71 ± 15.5 ng/mL
same,GH released (ng/ml)*,"[3]; dose 250 ug/kg, 0 min. (pretreated level)",57 ± 21.0 ng/mL
same,GH released (ng/ml)*,"[3]; dose 250 ug/kg, 15 min.",269 ± 30.3 ng/mL
same,GH released (ng/ml)*,"[3]; dose 250 ug/kg, 30 min.",232 ± 37.0 ng/mL
same,GH released (ng/ml)*,"[3]; dose 250 ug/kg, 60 min.",131 ± 33.9 ng/mL
same,Potentency relative to hGHRH (1-29)NH₂ (=1)*,[1],1.0
"CCCC[C@H](NC(=O)[C@@H](NC(=O)[C@H](CC(=O)O)NC(=O)[C@H](CCC(N)=O)NC(=O)[C@H](CC(C)C)NC(=O)[C@H](CC(C)C)NC(=O)[C@@H](CCCCN)NC(=O)[C@H](CCCNC(=N)N)NC(=O)[C@H](C)NC(=O)[C@H](CO)NC(=O)[C@H](CC(C)C)NC(=O)[C@H](CCC(N)=O)NC(=O)[C@H](C)NC(=O)[C@H](CC(C)C)NC(=O)[C@@H](NC(=O)[C@H](CCCCN)NC(=O)[C@H](CCCNC(=N)N)NC(=O)[C@H](Cc1ccc(O)cc1)NC(=O)[C@H](CO)NC(=O)[C@H](CC(N)=O)NC(=O)[C@@H](NC(=O)[C@H](Cc1ccccc1)NC(=O)[C@@H](NC(=O)[C@H](C)NC(=O)[C@H](CC(=O)O)NC(=O)[C@H](C)NC(=O)CCc1ccc(O)cc1)[C@@H](C)CC)[C@@H](C)O)C(C)C)[C@@H](C)CC)C(=O)N[C@@H](CO)C(=O)NCCCCNC(=N)N [Example XI, 3-(4-hydroxyphenyl)propionyl-Ala₂-Asp₃-Ala₄-Ile₅-Phe₆-Thr₇-Asn₈-Ser₉-Tyr₁₀-Arg₁₁-Lys₁₂-Val₁₃-Leu₁₄-Ala₁₅-Gln₁₆-Leu₁₇-Ser₁₈-Ala₁₉-Arg₂₀-D-Lys₂₁-Leu₂₂-Leu₂₃-Gln₂₄-Asp₂₅-Ile₂₆-Nle₂₇-Ser₂₈-NH-(CH₂)₄-NH-C-(NH₂)=NH] (HELM PEPTIDE1{[O=C(CCc1ccc(O)cc1)[*:2]].A.D.A.I.F.T.N.S.Y.R.K.V.L.A.Q.L.S.A.R.[dK].L.L.Q.D.I.[Nle].S.[N=C(N)NCCCCN[*:1]]}$$$$V2.0)",Potency,[4]; after 5 min,10.62
same,Potency,[4]; after 15 min,12.44
same,Potentency relative to hGHRH (1-29)NH₂ (=1)*,[1],33.3
"CCCC[C@H](NC(=O)[C@@H](NC(=O)[C@H](CC(=O)O)NC(=O)[C@H](CCC(N)=O)NC(=O)[C@H](CC(C)C)NC(=O)[C@H](CC(C)C)NC(=O)[C@H](CCCCN)NC(=O)[C@H](CCCNC(=N)N)NC(=O)[C@H](C)NC(=O)[C@H](CO)NC(=O)[C@H](CC(C)C)NC(=O)[C@H](CCC(N)=O)NC(=O)[C@H](C)NC(=O)[C@H](CC(C)C)NC(=O)[C@@H](NC(=O)[C@@H](CCCCN)NC(=O)[C@H](CCCNC(=N)N)NC(=O)[C@H](Cc1ccc(O)cc1)NC(=O)[C@H](CO)NC(=O)[C@H](CC(N)=O)NC(=O)[C@@H](NC(=O)[C@H](Cc1ccccc1)NC(=O)[C@@H](NC(=O)[C@H](C)NC(=O)[C@H](CC(=O)O)NC(=O)[C@H](C)NC(=O)CCc1ccc(O)cc1)[C@@H](C)CC)[C@@H](C)O)C(C)C)[C@@H](C)CC)C(=O)N[C@@H](CO)C(=O)NCCCCNC(=N)N [Example X, 3-(4-hydroxyphenyl)propionyl-Ala₂-Asp₃-Ala₄-Ile₅-Phe₆-Thr₇-Asn₈-Ser₉-Tyr₁₀-Arg₁₁-D-Lys₁₂-Val₁₃-Leu₁₄-Ala₁₅-Gln₁₆-Leu₁₇-Ser₁₈-Ala₁₉-Arg₂₀-Lys₂₁-Leu₂₂ Leu₂₃-Gln₂₄-Asp₂₅-Ile₂₆-Nle₂₇-Ser₂₈-NH-(CH₂)₄-NH-C-(NH₂)=NH] (HELM PEPTIDE1{[O=C(CCc1ccc(O)cc1)[*:2]].A.D.A.I.F.T.N.S.Y.R.[dK].V.L.A.Q.L.S.A.R.K.L.L.Q.D.I.[Nle].S.[N=C(N)NCCCCN[*:1]]}$$$$V2.0)",Potency,[4]; after 5 min,13.48
same,Potency,[4]; after 15 min,26.92
same,Potentency relative to hGHRH (1-29)NH₂ (=1)*,[1],73.5
"CCCC[C@H](NC(=O)[C@@H](NC(=O)[C@H](CC(=O)O)NC(=O)[C@H](CCC(N)=O)NC(=O)[C@H](CC(C)C)NC(=O)[C@H](CC(C)C)NC(=O)[C@H](CCCCN)NC(=O)[C@H](CCCNC(=N)N)NC(=O)[C@H](C)NC(=O)[C@H](CO)NC(=O)[C@H](CC(C)C)NC(=O)[C@H](CCC(N)=O)NC(=O)CNC(=O)[C@H](CC(C)C)NC(=O)[C@@H](NC(=O)[C@H](CCCCN)NC(=O)[C@H](CCCNC(=N)N)NC(=O)[C@H](Cc1ccc(O)cc1)NC(=O)[C@H](CO)NC(=O)[C@H](CC(N)=O)NC(=O)[C@@H](NC(=O)[C@H](Cc1ccccc1)NC(=O)[C@@H](NC(=O)[C@H](C)NC(=O)[C@H](CC(=O)O)NC(=O)[C@H](C)NC(=O)CCc1ccc(O)cc1)[C@@H](C)CC)[C@@H](C)O)C(C)C)[C@@H](C)CC)C(=O)N[C@@H](CO)C(=O)NCCCCNC(=N)N [Example VIII, 3-(4-hydroxyphenyl)propionyl-Ala₂-Asp₃-Ala₄-Ile₅-Phe₆-Thr₇-Asn₈-Ser₉-Tyr₁₀-Arg₁₁-Lys₁₂-Val₁₃-Leu₁₄-Gly₁₅-Gln₁₆-Leu₁₇-Ser₁₈-Ala₁₉-Arg₂₀-Lys₂₁-Leu₂₂-Leu₂₃-Gln₂₄-Asp₂₅-Ile₂₆-Nle₂₇ -Ser₂₈-NH-(CH₂)₄-NH-C-(NH₂)=N-SO₂-<o>-OCH₂-CO-[SP]] (HELM PEPTIDE1{[O=C(CCc1ccc(O)cc1)[*:2]].A.D.A.I.F.T.N.S.Y.R.K.V.L.G.Q.L.S.A.R.K.L.L.Q.D.I.[Nle].S.[N=C(N)NCCCCN[*:1]]}$$$$V2.0)",Potency,[4]; after 5 min,15.16
same,Potency,[4]; after 15 min,20.96
same,GH released (ng/ml)*,"[3]; dose 1.0 ug/kg, 0 min. (pretreated level)",99 ± 11.2 ng/mL
same,GH released (ng/ml)*,"[3]; dose 1.0 ug/kg, 15 min.",178 ± 18.4 ng/mL
same,GH released (ng/ml)*,"[3]; dose 1.0 ug/kg, 30 min.",132 ± 15.1 ng/mL
same,GH released (ng/ml)*,"[3]; dose 1.0 ug/kg, 60 min.",65 ± 16.5 ng/mL
same,GH released (ng/ml)*,"[3]; dose 2.5 ug/kg, 0 min. (pretreated level)",94 ± 12.0 ng/mL
same,GH released (ng/ml)*,"[3]; dose 2.5 ug/kg, 15 min.",375 ± 76.5 ng/mL
same,GH released (ng/ml)*,"[3]; dose 2.5 ug/kg, 30 min.",197 ± 21.4 ng/mL
same,GH released (ng/ml)*,"[3]; dose 2.5 ug/kg, 60 min.",94 ± 17.7 ng/mL
same,Potency,[3]; after 15 min,158.94
same,Potency,[3]; after 30 min,133.98
same,Potentency relative to hGHRH (1-29)NH₂ (=1)*,[1],254
"CCCC[C@H](NC(=O)[C@@H](NC(=O)[C@H](CC(=O)O)NC(=O)[C@H](CCC(N)=O)NC(=O)[C@H](CC(C)C)NC(=O)[C@H](CC(C)C)NC(=O)[C@@H](CCCCN)NC(=O)[C@H](CCCNC(=N)N)NC(=O)[C@H](C)NC(=O)[C@H](CO)NC(=O)[C@H](CC(C)C)NC(=O)[C@H](CCC(N)=O)NC(=O)[C@H](C)NC(=O)[C@H](CC(C)C)NC(=O)[C@@H](NC(=O)[C@@H](CCCCN)NC(=O)[C@H](CCCNC(=N)N)NC(=O)[C@H](Cc1ccc(O)cc1)NC(=O)[C@H](CO)NC(=O)[C@H](CC(N)=O)NC(=O)[C@@H](NC(=O)[C@H](Cc1ccccc1)NC(=O)[C@@H](NC(=O)[C@H](C)NC(=O)[C@H](CC(=O)O)NC(=O)[C@H](C)NC(=O)CCc1ccc(O)cc1)[C@@H](C)CC)[C@@H](C)O)C(C)C)[C@@H](C)CC)C(=O)N[C@@H](CO)C(=O)NCCCCNC(=N)N [Example XII, 3-(4-hydroxyphenyl)propionyl-Ala₂-Asp₃-Ala₄-Ile₅-Phe₆-Thr₇-Asn₈-Ser₉-Tyr₁₀-Arg₁₁-D-Lys₁₂-Val₁₃-Leu₁₄-Ala₁₅-Gln₁₆-Leu₁₇-Ser₁₈-Ala₁₉-Arg₂₀-D-Lys₂₁-Leu₂₂-Leu₂₃-Gln₂₄-Asp₂₅-Ile₂₆-Nle₂₇-Ser₂₈-(CH₂)₄-NH-C-(NH₂)=NH] (HELM PEPTIDE1{[O=C(CCc1ccc(O)cc1)[*:2]].A.D.A.I.F.T.N.S.Y.R.[dK].V.L.A.Q.L.S.A.R.[dK].L.L.Q.D.I.[Nle].S.[N=C(N)NCCCCN[*:1]]}$$$$V2.0)",Potency,[4]; after 5 min,16.68
same,Potentency relative to hGHRH (1-29)NH₂ (=1)*,[1],34.2
